Measured values as given in paper PMC4081100.
Only a part is listed here, and it is no random draw. For some of these results: At the low end of the ranking the order means little. This is one part of the list. For some of these results: Construct or isoform of the protein are uncertain.

Columns and labels:
Assay in all cases: universal protein binding microarray (PBM)
Conditions in all cases: transcription factors of Arabidopsis thaliana; high values mean tight binding; most listed sequences are background and not binding sites; double strand, one strand shown
[1] = molecular target: T1, GST-ANAC092(1-176) (UniProt Q9FKA0)
T1 sequence: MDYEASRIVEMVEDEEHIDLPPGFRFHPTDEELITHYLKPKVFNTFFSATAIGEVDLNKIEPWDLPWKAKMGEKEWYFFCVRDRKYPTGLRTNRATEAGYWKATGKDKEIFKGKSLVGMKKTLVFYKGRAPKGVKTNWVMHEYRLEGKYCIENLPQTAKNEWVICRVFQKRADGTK

[2] = molecular target: GST-NTL6(1-168) (UniProt Q9SCK6)
[3] = molecular target: T2, GST-ANAC019 NAC domain (UniProt Q9C932)
T2 sequence: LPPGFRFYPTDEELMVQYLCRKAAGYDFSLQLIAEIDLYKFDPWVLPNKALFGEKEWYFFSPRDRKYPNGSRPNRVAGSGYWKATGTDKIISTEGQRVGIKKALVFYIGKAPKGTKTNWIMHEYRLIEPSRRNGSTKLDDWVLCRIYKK

[4] = molecular target: T3, GST-ANAC055(1-171) (UniProt Q9LDY8)
T3 sequence: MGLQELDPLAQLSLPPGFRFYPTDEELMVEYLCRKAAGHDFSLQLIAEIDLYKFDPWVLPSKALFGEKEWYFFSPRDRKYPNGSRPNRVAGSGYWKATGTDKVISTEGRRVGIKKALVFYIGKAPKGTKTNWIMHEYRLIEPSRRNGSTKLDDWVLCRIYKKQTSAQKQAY

[5] = molecular target: T4, GST-ATAF1 NAC domain (UniProt Q39013)
T4 sequence: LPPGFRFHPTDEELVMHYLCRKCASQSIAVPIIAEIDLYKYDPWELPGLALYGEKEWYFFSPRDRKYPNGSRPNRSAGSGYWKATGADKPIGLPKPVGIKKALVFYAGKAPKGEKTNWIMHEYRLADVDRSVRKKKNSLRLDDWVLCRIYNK

[6] = molecular target: T5, GST-NST2(1-184) (UniProt Q9M274)
T5 sequence: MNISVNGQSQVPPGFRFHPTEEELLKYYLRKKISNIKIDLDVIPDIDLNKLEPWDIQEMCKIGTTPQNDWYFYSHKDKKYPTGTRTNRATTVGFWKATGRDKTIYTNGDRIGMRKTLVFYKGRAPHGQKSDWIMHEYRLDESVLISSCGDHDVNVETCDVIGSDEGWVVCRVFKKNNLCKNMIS

[7] = molecular target: T6, GST-VND7 NAC domain (UniProt Q9C8W9)
T6 sequence: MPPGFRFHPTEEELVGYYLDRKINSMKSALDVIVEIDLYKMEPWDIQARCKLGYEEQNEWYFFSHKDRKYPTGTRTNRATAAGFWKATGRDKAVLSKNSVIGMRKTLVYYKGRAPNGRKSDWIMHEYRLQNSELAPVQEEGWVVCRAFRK

[8] = molecular target: T7, GST-VOZ2 (Arabidopsis thaliana) (UniProt Q9SLB9)
T7 sequence: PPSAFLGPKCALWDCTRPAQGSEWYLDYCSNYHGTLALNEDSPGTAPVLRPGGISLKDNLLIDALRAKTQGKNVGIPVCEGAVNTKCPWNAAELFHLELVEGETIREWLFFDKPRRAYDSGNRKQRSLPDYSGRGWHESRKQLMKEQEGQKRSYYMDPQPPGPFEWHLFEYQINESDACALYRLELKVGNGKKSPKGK

[9] = molecular target: T8, GST-ANAC092(1-285) full length (UniProt Q9FKA0)
T8 sequence: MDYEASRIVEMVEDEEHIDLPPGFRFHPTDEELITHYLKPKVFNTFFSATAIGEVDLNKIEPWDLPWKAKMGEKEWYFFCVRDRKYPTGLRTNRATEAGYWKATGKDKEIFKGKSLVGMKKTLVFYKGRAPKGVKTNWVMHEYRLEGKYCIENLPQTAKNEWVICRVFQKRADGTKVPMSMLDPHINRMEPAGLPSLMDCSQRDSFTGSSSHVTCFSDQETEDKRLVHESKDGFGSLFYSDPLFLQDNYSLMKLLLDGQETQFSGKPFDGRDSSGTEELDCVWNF

[10] = molecular target: T9, GST-NAP(1-166) (UniProt O49255)
T9 sequence: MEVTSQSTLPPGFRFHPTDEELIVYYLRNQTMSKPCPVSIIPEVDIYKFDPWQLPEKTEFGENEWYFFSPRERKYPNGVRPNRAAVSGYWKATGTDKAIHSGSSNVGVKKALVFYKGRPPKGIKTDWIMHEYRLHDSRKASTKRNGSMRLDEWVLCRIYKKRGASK

[11] = molecular target: T10, GST-NTL8 NAC domain (UniProt Q9XIN7)
T10 sequence: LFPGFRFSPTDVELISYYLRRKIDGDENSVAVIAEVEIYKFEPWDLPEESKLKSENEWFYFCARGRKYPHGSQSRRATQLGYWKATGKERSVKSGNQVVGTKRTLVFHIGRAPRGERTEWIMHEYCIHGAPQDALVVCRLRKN

[12] = molecular target: GST-WRKY1(266-371) (UniProt Q9SI37)

Sequence	binding signal [1] [E-score]	binding signal [2] [E-score]	binding signal [3] [E-score]	binding signal [4] [E-score]	binding signal [5] [E-score]	binding signal [6] [E-score]	binding signal [7] [E-score]	binding signal [8] [E-score]	binding signal [9] [E-score]	binding signal [10] [E-score]	binding signal [11] [E-score]	binding signal [12] [E-score]
GTCAAAAC	0.0114	0.0209	-0.00644	0.0315	0.178	-0.0124	-0.0265	0.146	–	–	–	–
AAGTAATA	–	0.428	0.0278	0.215	0.207	–	0.136	0.0754	0.327	0.14	0.211	–
ACGTAAAA	–	0.161	–	–	–	–	0.344	0.178	–	0.326	0.0957	–
AGTCAAAC	0.00993	–	–	0.103	0.109	–	-0.026	0.0304	0.0473	0.0582	–	–
AAGGTAAG	–	–	–	0.0499	–	0.144	-0.032	0.0408	–	-0.189	–	-0.0535
AGTTTGAC	-0.0156	–	–	–	–	0.00848	0.095	0.0273	0.0246	-0.106	-0.0359	–
GTTTCCTA	–	–	–	–	–	0.169	0.0417	0.0891	–	0.118	0.404	0.0369
GAAGCAAC	–	–	0.0196	–	–	–	0.228	0.134	–	0.00616	0.416	-0.00937
TAGCGTGA	0.441	0.0555	0.209	–	–	–	0.191	0.115	0.454	0.0225	0.0288	–
ACGCTACT	–	0.0316	–	–	–	–	0.00226	0.215	0.425	–	0.0894	–
CACACGTC	–	-0.0564	–	–	–	–	0.176	0.0908	–	–	-0.134	-0.0583
ACGTTTCC	–	–	–	0.343	–	–	0.359	0.0489	–	–	–	-0.0571
ATACGAAA	–	–	0.166	0.202	–	0.271	0.205	0.103	–	0.251	0.0268	-0.0553
CTTACCCC	0.192	0.322	–	–	–	–	0.149	0.198	–	–	–	–
GTGCCGTA	–	0.0263	–	–	–	0.263	0.453	-0.0217	–	–	0.102	-0.13
AATTGCGT	0.451	0.0568	0.394	–	–	0.294	–	0.25	0.46	0.432	0.0923	-0.0635
AATGCGTA	0.371	-0.0301	0.0337	0.0991	–	–	–	0.167	–	0.183	-0.00112	-0.0228
AACGTAAC	–	0.15	0.15	–	–	–	–	-0.00207	–	–	–	0.0144
ACAAGTTA	–	0.022	0.00787	0.106	0.162	–	–	0.0301	–	-0.0978	0.0244	-0.065
AGCGTGTA	0.418	-0.0758	0.0634	–	–	–	–	-0.0449	0.436	0.198	-0.0901	-0.055
GCGTGTGA	0.374	-0.0187	–	–	–	0.189	–	0.0588	–	–	-0.0762	-0.00742

Sequence	binding signal [1] [E-score]	binding signal [2] [E-score]	binding signal [3] [E-score]	binding signal [4] [E-score]	binding signal [5] [E-score]	binding signal [6] [E-score]	binding signal [7] [E-score]	binding signal [8] [E-score]	binding signal [9] [E-score]	binding signal [10] [E-score]	binding signal [11] [E-score]	binding signal [12] [E-score]
AGTAAGTA	0.145	0.415	0.133	–	–	–	–	0.0588	0.184	0.0452	-0.0257	0.00622
ATTGAGTA	0.329	–	0.143	0.176	–	–	–	0.103	–	–	0.129	-0.124
AGAGGAAA	0.115	0.126	-0.0124	0.0107	–	-0.0502	–	0.0556	–	0.0393	–	0.0337
AAAGCAAC	0.268	–	-0.0857	–	0.00722	–	–	0.0505	–	-0.155	–	-0.0466
ACACGCAT	0.462	0.0235	0.346	–	–	–	–	0.066	0.468	0.332	-0.0867	-0.0484
TTAAGCAA	–	0.471	0.0483	0.133	–	0.334	–	-0.0869	–	-0.0933	–	-0.154
TCACGGAA	0.363	-0.00634	–	–	–	0.0355	–	-0.0377	–	0.383	0.0193	-0.0667
ATTACGTA	–	–	–	–	–	–	0.458	0.165	0.449	–	–	–
ACGCCAAC	0.404	-0.066	–	–	–	–	–	0.151	–	–	-0.106	-0.135
CAAGTTAC	0.371	0.256	0.163	–	–	–	–	0.00292	–	0.144	–	-0.0191
TAAGGTCA	-0.0377	0.242	-0.0928	0.0336	–	0.0344	–	0.178	-0.00901	–	–	0.441
ACGTAAAC	0.397	-0.00688	–	–	0.321	–	–	0.128	–	0.368	0.0415	0.0172
ACGTACGC	0.212	-0.0284	–	–	0.26	–	–	0.0607	–	0.274	-0.00986	-0.0607
CACGCTAC	0.46	-0.0636	–	–	–	0.298	–	0.0564	–	0.0384	0.00465	-0.0318
ATACACGC	0.39	-0.00434	–	–	–	–	–	0.0476	–	0.256	-0.0286	0.0204
TCGGTCAA	–	–	-0.00981	–	-0.0221	–	-0.0861	0.136	0.0439	–	0.0239	–
ATACGCAA	0.485	0.0867	–	0.397	–	0.406	–	0.169	–	0.459	–	0.027
TAACGTAA	0.452	–	0.25	–	–	0.402	–	0.0889	–	–	–	0.0682
TTAAGTAA	–	0.48	0.198	0.0996	–	–	–	0.134	–	0.0398	–	-0.0688
ATGCGTAC	0.362	–	–	0.17	–	–	–	0.0899	–	–	-0.0901	0.0545
TTAAGAAA	–	–	-0.000405	–	–	–	0.0318	0.164	0.227	-0.11	0.273	–
